The results in this text go back to the BET-seq Pho4 binding data (Le et al. 2018).

This is one part of the list. These are noisy estimates, calculated here from bound and input reads.

This experiment concerns the target T1, Pho4 (S. cerevisiae) (UniProt P07270).
T1 sequence: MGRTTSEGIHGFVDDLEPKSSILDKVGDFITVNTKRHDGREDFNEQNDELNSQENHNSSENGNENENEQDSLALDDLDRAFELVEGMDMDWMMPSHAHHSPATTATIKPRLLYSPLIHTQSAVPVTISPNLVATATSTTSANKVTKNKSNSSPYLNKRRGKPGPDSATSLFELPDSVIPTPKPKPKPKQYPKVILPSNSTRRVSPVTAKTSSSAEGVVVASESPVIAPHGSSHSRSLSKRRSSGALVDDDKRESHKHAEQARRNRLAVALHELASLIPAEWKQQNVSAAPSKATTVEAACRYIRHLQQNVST
Put plainly: relative binding free energy (BET-seq); higher = weaker binding. The following applies: reference: library average.
Turning to TACGTCACGTGTATGA, the “relative binding free energy” value was found to be 0.335 kJ/mol.

As for CTGGTCACGTGTAAAG, the “relative binding free energy” value is 1 kJ/mol.

For TTGGTCACGTGGGGGT, the “relative binding free energy” value came out at 0.377 kJ/mol.

For TGTGGCACGTGTAAAT, the “relative binding free energy” value turned out to be 0.126 kJ/mol.

In the case of AGTCTCACGTGTGGGG, the “relative binding free energy” value came out at 0.586 kJ/mol.

Turning to GGAAGCACGTGAATGG, the “relative binding free energy” value was 0.502 kJ/mol.

With TACGTCACGTGAAGGT, the “relative binding free energy” value amounted to 1.42 kJ/mol.

On to GCGTACACGTGTGGTG, for which the “relative binding free energy” value came to 0.502 kJ/mol.

For the sequence TTTTCCACGTGTGCTT, the “relative binding free energy” value was determined as 0.167 kJ/mol.

For the sequence ATTGGCACGTGGATAA, the “relative binding free energy” value was -0.669 kJ/mol.

With AGTTGCACGTGTAGTT, the “relative binding free energy” value is 0.377 kJ/mol.

On to TTGAACACGTGGAGCG, for which the “relative binding free energy” value was -0.0418 kJ/mol.

With CATGTCACGTGATAGT, the “relative binding free energy” value is 0.377 kJ/mol.

TAATGCACGTGGGTGC: the “relative binding free energy” value is -1.34 kJ/mol.

Consider TTTGGCACGTGATGGC, for which the “relative binding free energy” value is -0.126 kJ/mol.

As to TTTGTCACGTGGATCT, the “relative binding free energy” value is 0.251 kJ/mol.

On to TATCGCACGTGGGGTT, for which the “relative binding free energy” value was -0.962 kJ/mol.

For GTAAGCACGTGTAATG, the “relative binding free energy” value is -0.0418 kJ/mol.

On to CGTTACACGTGTGTGT, for which the “relative binding free energy” value was -0.0837 kJ/mol.

For ACGGACACGTGTTTTG, the “relative binding free energy” value worked out at 0.335 kJ/mol.

With ATCTTCACGTGGGGTT, the “relative binding free energy” value was 0.502 kJ/mol.

Take TGCGGCACGTGTGTCT: the “relative binding free energy” value was -0.167 kJ/mol.

On to GGGATCACGTGTATAT, for which the “relative binding free energy” value was 0.753 kJ/mol.

With TAGCTCACGTGGGTTT, the “relative binding free energy” value amounted to 0.544 kJ/mol.

As to CTAGTCACGTGAGAGG, the “relative binding free energy” value amounted to 0.753 kJ/mol.

TCGGGCACGTGCGAAG: the “relative binding free energy” value is 0.209 kJ/mol.

Regarding TGTATCACGTGTGGGT, the “relative binding free energy” value stood at 0.92 kJ/mol.

Turning to ATTTTCACGTGGTGAA, the “relative binding free energy” value was found to be 0.669 kJ/mol.

Turning to GGGTTCACGTGGGGCG, the “relative binding free energy” value was 0.837 kJ/mol.

In the case of TCGAACACGTGGTAGG, the “relative binding free energy” value amounted to 0.46 kJ/mol.

As for CTGGCCACGTGTAGTG, the “relative binding free energy” value was -0.209 kJ/mol.

Consider CTTATCACGTGGAGGT, for which the “relative binding free energy” value was 0 kJ/mol.

TGATGCACGTGGAGGT: the “relative binding free energy” value worked out at 0 kJ/mol.

Take ATGTACACGTGTGTCT: the “relative binding free energy” value turned out to be 0.669 kJ/mol.

On to TGTTTCACGTGAACTT, for which the “relative binding free energy” value was found to be 1.09 kJ/mol.

Take ATGTTCACGTGCGGTG: the “relative binding free energy” value turned out to be 1.21 kJ/mol.

In the case of TTTGTCACGTGGTCGA, the “relative binding free energy” value was -0.418 kJ/mol.

With AACGGCACGTGTGCGT, the “relative binding free energy” value was -0.418 kJ/mol.

Consider GAGTGCACGTGAGGGG, for which the “relative binding free energy” value is 1.05 kJ/mol.

Take GGGTGCACGTGGTAAC: the “relative binding free energy” value was -0.335 kJ/mol.

Consider GAGTGCACGTGATAGA, for which the “relative binding free energy” value came out at 1.13 kJ/mol.

As to TGTTGCACGTGCCGAG, the “relative binding free energy” value was -0.335 kJ/mol.

As to TTCTTCACGTGGGCGG, the “relative binding free energy” value was determined as 0.628 kJ/mol.

Consider AAATTCACGTGATGGT, for which the “relative binding free energy” value stood at 1 kJ/mol.

Consider ATAGGCACGTGGGAGT, for which the “relative binding free energy” value was -0.544 kJ/mol.

As to TTTAGCACGTGCATGG, the “relative binding free energy” value is -0.209 kJ/mol.

For TATTTCACGTGATCGT, the “relative binding free energy” value was determined as 1.26 kJ/mol.

For the sequence CTCTTCACGTGGTGGG, the “relative binding free energy” value came out at 0.92 kJ/mol.

As for GTCGTCACGTGAGGTT, the “relative binding free energy” value was determined as 0.837 kJ/mol.

TTGAACACGTGCTCGG: the “relative binding free energy” value was determined as 0.335 kJ/mol.

With TGGTGCACGTGCTTCT, the “relative binding free energy” value is -0.293 kJ/mol.

For the sequence AATCGCACGTGTGATG, the “relative binding free energy” value was 0.418 kJ/mol.

In the case of AAAGGCACGTGAGATT, the “relative binding free energy” value was determined as 0.879 kJ/mol.

GGTTACACGTGGCTAG: the “relative binding free energy” value turned out to be 0.251 kJ/mol.

Turning to AGGGTCACGTGGGACA, the “relative binding free energy” value was 0 kJ/mol.

Regarding TTGGGCACGTGCAGTT, the “relative binding free energy” value was 0.0837 kJ/mol.

In the case of GCGGGCACGTGGAGTA, the “relative binding free energy” value is -0.377 kJ/mol.

On to GGGCACACGTGCGGGT, for which the “relative binding free energy” value is -0.126 kJ/mol.

On to GTGGGCACGTGTTGGC, for which the “relative binding free energy” value came out at 0.209 kJ/mol.

As to TTGCACACGTGGTTGG, the “relative binding free energy” value is -0.0837 kJ/mol.

In the case of GTGGGCACGTGGAGGT, the “relative binding free energy” value is -0.126 kJ/mol.

Regarding TAGTTCACGTGTGTGG, the “relative binding free energy” value was 1.3 kJ/mol.

For CCTGGCACGTGTTGAG, the “relative binding free energy” value is -0.0418 kJ/mol.

Take TAGGTCACGTGGTATT: the “relative binding free energy” value stood at 0.0418 kJ/mol.

As for AGGTACACGTGTAGAT, the “relative binding free energy” value was found to be 1.38 kJ/mol.

GTTGACACGTGGATAG: the “relative binding free energy” value turned out to be 0.628 kJ/mol.

Take ATGGACACGTGGCGTG: the “relative binding free energy” value is -0.92 kJ/mol.

As to ACATTCACGTGAGGTT, the “relative binding free energy” value worked out at 1.17 kJ/mol.

With ATATACACGTGGGCGT, the “relative binding free energy” value was -0.711 kJ/mol.

Turning to TTTGTCACGTGGTCTT, the “relative binding free energy” value was 0.669 kJ/mol.

For the sequence ATTATCACGTGGGGTG, the “relative binding free energy” value is -0.293 kJ/mol.

For GTAAACACGTGTGTTC, the “relative binding free energy” value amounted to 0.418 kJ/mol.

Turning to TGGGCCACGTGATCGT, the “relative binding free energy” value came to 0.209 kJ/mol.

On to TTGGCCACGTGCAAGG, for which the “relative binding free energy” value came out at 0.502 kJ/mol.

Regarding TAGCCCACGTGTGGTT, the “relative binding free energy” value is 0.0837 kJ/mol.

TATCTCACGTGATATG: the “relative binding free energy” value was 1.51 kJ/mol.

GTTGGCACGTGGGCCA: the “relative binding free energy” value was -0.251 kJ/mol.

With CTCGGCACGTGGTGCG, the “relative binding free energy” value was -0.711 kJ/mol.

Take GGAATCACGTGGGATG: the “relative binding free energy” value was 0.0837 kJ/mol.

As for ATTAACACGTGTTAGG, the “relative binding free energy” value is -0.251 kJ/mol.

Take GGTTACACGTGTTGAA: the “relative binding free energy” value is 0.837 kJ/mol.

As for AATTGCACGTGAATTT, the “relative binding free energy” value was found to be 1.51 kJ/mol.

As for TGTAGCACGTGTGTTG, the “relative binding free energy” value was -0.251 kJ/mol.

Take ATGGTCACGTGTTTGG: the “relative binding free energy” value was determined as 0.46 kJ/mol.

On to GGTGTCACGTGACGTG, for which the “relative binding free energy” value was found to be 1.13 kJ/mol.

Turning to TGTCTCACGTGAGTAT, the “relative binding free energy” value was found to be 1.46 kJ/mol.

Turning to TGGGCCACGTGCTGTA, the “relative binding free energy” value is -0.795 kJ/mol.

Consider GGGGGCACGTGATGCT, for which the “relative binding free energy” value was -0.209 kJ/mol.

Regarding GCGGTCACGTGTGGTC, the “relative binding free energy” value came out at 0.962 kJ/mol.

On to TACGTCACGTGATTGG, for which the “relative binding free energy” value came to 0.418 kJ/mol.

For the sequence TCTGACACGTGTGTTG, the “relative binding free energy” value came out at 0.251 kJ/mol.

Consider TGCGTCACGTGTTAGT, for which the “relative binding free energy” value turned out to be 0.418 kJ/mol.

Consider ATAGTCACGTGTTCAT, for which the “relative binding free energy” value came out at 0.46 kJ/mol.

Turning to GCTGACACGTGGTTTT, the “relative binding free energy” value was 0.126 kJ/mol.

With CGTTTCACGTGTTGGA, the “relative binding free energy” value was found to be 1.63 kJ/mol.

Take AGTTGCACGTGAGTTA: the “relative binding free energy” value was 0.753 kJ/mol.

Regarding ACGTGCACGTGGTATT, the “relative binding free energy” value is -0.711 kJ/mol.

Regarding GGTGTCACGTGGAGAA, the “relative binding free energy” value was 0.628 kJ/mol.

As to GCGGTCACGTGAGTTG, the “relative binding free energy” value was found to be 1.3 kJ/mol.

As for GGGATCACGTGCTGGT, the “relative binding free energy” value amounted to 0.586 kJ/mol.

In the case of TTTTACACGTGGGCCG, the “relative binding free energy” value came out at 0.251 kJ/mol.

On to CTTGGCACGTGGTGAA, for which the “relative binding free energy” value is -0.628 kJ/mol.

Regarding TTGGTCACGTGGATTG, the “relative binding free energy” value came to 0.669 kJ/mol.

For the sequence TGTTTCACGTGACGAT, the “relative binding free energy” value amounted to 1.13 kJ/mol.

Regarding TGCGGCACGTGCGGAT, the “relative binding free energy” value is -0.586 kJ/mol.

With TGATTCACGTGTTAGC, the “relative binding free energy” value is 0.711 kJ/mol.

GGAGGCACGTGTAGTT: the “relative binding free energy” value was -0.293 kJ/mol.

On to TGGGGCACGTGTCACT, for which the “relative binding free energy” value was -0.711 kJ/mol.

For CGCATCACGTGGGTTG, the “relative binding free energy” value was -0.418 kJ/mol.

On to AGATTCACGTGTCGTA, for which the “relative binding free energy” value came out at 1.46 kJ/mol.

In the case of AATTGCACGTGTAGTT, the “relative binding free energy” value turned out to be 0.126 kJ/mol.

Regarding GGGTACACGTGAAGGC, the “relative binding free energy” value is 1.59 kJ/mol.

Regarding TAGATCACGTGGAAGT, the “relative binding free energy” value came out at 0.753 kJ/mol.

In the case of TGATTCACGTGCTTGG, the “relative binding free energy” value was determined as 0.669 kJ/mol.

TGGAACACGTGCATGG: the “relative binding free energy” value came out at 0.0837 kJ/mol.
